Test results as given in PubChem BioAssay AID1460 (National Center for Advancing Translational Sciences (NCATS), 2008).
In all, about 270,000 compounds went through this assay and about 5,800 (2.1%) were called active. Inconclusive results, whose numbers are uncertain, are shown with a selection of clear calls. Calls follow the shape of the dose curve; as a rule, active = well fitted inhibition curve with a large enough effect; inconclusive = small, poorly fitted or top-dose-only effect; inactive = flat fitted curve, though single readings scatter. Where the call is inconclusive, the potency comes from a doubtful curve fit.

target: Microtubule-associated protein tau (Homo sapiens) (UniProt P10636); test: qHTS for Inhibitors of Tau Fibril Formation, Thioflavin T Binding; details: recombinant tau K18 P301L, heparin-induced fibrillization, ThT fluorescence; series mostly up to 57.4 µM; also: nearly all actives have a fitted effect of over 55% in size
Outline: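 ThT emission at 510 nm, taken 1 hr after adding 30 uM dye, quantifies aggregates formed when 20 uM heparin acts on human tau K18 P301L for 6 hr at 37 C.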
% is scaled to controls: 0 for no effect and ±100 for the full control effect; potency is read from the fitted curve at half-maximal effect; tags tell the direction and shape of the fitted curve.

Chain of UniProt P10636 (P10636 whole entry, looked up): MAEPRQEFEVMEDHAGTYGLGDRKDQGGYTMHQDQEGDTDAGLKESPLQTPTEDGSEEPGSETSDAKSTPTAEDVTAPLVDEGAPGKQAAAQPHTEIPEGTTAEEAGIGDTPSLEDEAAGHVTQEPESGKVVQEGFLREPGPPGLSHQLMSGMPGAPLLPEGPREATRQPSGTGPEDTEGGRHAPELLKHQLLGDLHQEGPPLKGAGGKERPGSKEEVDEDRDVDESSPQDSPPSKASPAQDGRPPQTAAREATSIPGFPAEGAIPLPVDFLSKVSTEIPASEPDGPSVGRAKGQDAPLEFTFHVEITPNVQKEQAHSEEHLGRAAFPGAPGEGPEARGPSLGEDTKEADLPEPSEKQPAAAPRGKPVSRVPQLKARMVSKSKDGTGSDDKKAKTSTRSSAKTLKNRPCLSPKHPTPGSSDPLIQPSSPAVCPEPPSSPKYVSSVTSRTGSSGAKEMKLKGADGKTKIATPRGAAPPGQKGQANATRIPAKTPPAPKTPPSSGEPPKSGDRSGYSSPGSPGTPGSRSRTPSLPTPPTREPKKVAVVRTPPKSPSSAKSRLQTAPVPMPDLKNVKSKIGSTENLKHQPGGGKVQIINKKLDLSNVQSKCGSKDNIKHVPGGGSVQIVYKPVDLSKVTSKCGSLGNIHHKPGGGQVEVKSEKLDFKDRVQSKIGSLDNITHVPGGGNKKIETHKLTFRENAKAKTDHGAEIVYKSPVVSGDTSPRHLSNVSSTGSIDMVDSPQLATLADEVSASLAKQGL

SMILES | Potency | activity, negative = inhibition
CCOC(=O)c1[nH]c(C)c(CCC(=O)Nc2cc(Cl)c(OC)cc2OC)c1C | inconclusive: 22.4 µM [inhibitor, single point] | 
CCN(CC)Cc1c[nH]c2c(C(=O)OC)cccc12 | inconclusive: 11.2 µM [inhibitor, partial curve] | 
Cc1ccc2c(c1)c(C)c(C)n2CC(O)Cn1nnc2ccccc21 (configuration not stated) | inconclusive: 31.6 µM [inhibitor, single point] | 
Cc1nn(CC(O)c2ccccc2)c(C)c1Br (configuration not stated) | inactive | 
O=C(O)CCCN1C(=O)C2C3CC(C2C1=O)C1C(c2ccccc2)c2sc(=O)[nH]c2SC31 (configuration not stated) | inconclusive: 28.2 µM [inhibitor, partial curve] | 
Cc1cc(C(=O)CCl)c(C)n1CCc1ccccc1 | inconclusive: 12.6 µM [inhibitor, partial curve] | 
CCc1ccc(NC(=O)Cn2c(=O)n(CCc3ccccc3)c(=O)c3sc4ccccc4c32)cc1 | inactive | 
COc1ccc(C(=O)Nc2ccc(NC(=O)c3cccs3)c(OC)c2)cc1Cl | inconclusive: 1.78 µM [inhibitor, full curve] | 
CCc1ccc(C=NC23CN4CN(CN(C4)C2)C3)s1 | inactive | 
CCCCCCC(=O)N(O)C1CC(=O)N(c2ccc(C)cc2)C1=O (configuration not stated) | inconclusive: 20 µM [inhibitor, partial curve] | 
N#Cc1cc(C(=O)c2cc(Cl)ccc2O)cn(-c2ccccc2)c1=O | inactive | 
C/C(=N\N=C1\NC(=O)CC(C(=O)O)S1)c1ccc(F)cc1 (configuration not stated) | inactive | 
CCn1c(SCC(=O)Nc2ccc(C(C)=O)cc2)nc2ccccc21 | inconclusive: 14.1 µM [inhibitor, partial curve] | 
Cc1cc(N2CCC(C)CC2)nc2ccc(NC(=O)CCC(=O)N3CCN(c4ccccc4F)CC3)cc12 | inconclusive: 10 µM [inhibitor, partial curve] | 
O=S(=O)(c1ccc2nc(Nc3ccc(F)cc3)ccc2c1)N1CCCC1 | inconclusive: 1.78 µM [activator, full curve] | 
Cc1cc(SCC(=O)Nc2ncc(Cl)cc2Cl)nc2ccccc12 | inconclusive: 20 µM [inhibitor, single point] | 
COCCOC(=O)C1=C(C)N=c2s/c(=C\c3cccs3)c(=O)n2C1c1cccs1 (configuration not stated) | inconclusive: 7.08 µM [inhibitor, partial curve] | 
CC(=O)c1cccc(NC(=S)NCCc2ccc(Cl)cc2)c1 | inactive | 
Cc1ccc(O)c(C(=O)c2cc(C#N)c(=O)n(-c3nccs3)c2)c1 | inconclusive: 20 µM [inhibitor, single point] | 
COc1ccc(OC)c(NC(=O)CC2SC(=Nc3ccccc3)N(CCc3ccccn3)C2=O)c1 (configuration not stated) | inconclusive: 11.2 µM [inhibitor, partial curve, poor fit] | 
O=C(N/N=C/c1cccs1)c1cccc2cc[nH]c12 | inconclusive: 7.08 µM [inhibitor, partial curve, poor fit] | 
CC1CCC2C(=O)OC(COc3ccc(C(C)(C)C)cc3)CN2C1c1ccc(Br)cc1 (configuration not stated) |  | inactive: -10.3% [at 11.5 µM] [middle of 5 runs]
Nc1n[nH]c2ccccc12 | inactive | 
CCn1c(SCC(=O)N/N=C(\C)c2ccco2)nnc1-c1ccccc1 | inactive | 

SMILES | Potency | activity, negative = inhibition
N#C/C(=C\Nc1ccc(Cl)cn1)S(=O)(=O)c1ccccn1 | inconclusive: 3.16 µM [inhibitor, partial curve, poor fit] | 
Cc1ccc2c(c1)N(C(=O)CCC(=O)NCc1cccs1)CCO2 | inactive | 
Cc1[nH]n(-c2ccccc2)c(=O)c1N=Nc1nccs1 | active: 12.6 µM | 
Cc1cc(N2CCCCC2C)nc(-c2ccccc2O)n1 (configuration not stated) | inconclusive: 44.7 µM [inhibitor, single point] | 
COc1cc(N2C(=O)CSC23C(=O)N(Cc2ccc(C)cc2)c2ccccc23)cc(OC)c1OC (configuration not stated) | inconclusive: 39.8 µM [inhibitor, single point] | 
COc1ccc2c(c1)sc(=N)n2C | inconclusive: 39.8 µM [inhibitor, single point] | 
Cc1ccc(C(=O)CC(=O)c2cc(Cl)ccc2O)cc1 | inconclusive: 25.1 µM [inhibitor, partial curve] | 
Cc1ccc(NC(=O)c2cc(N3C(=O)C4CC=CCC4C3=O)ccc2N2CCOCC2)cc1Cl (configuration not stated) | inactive | 
CC1CCN(CCCNC(=O)c2cn(C)c3ccc(S(=O)(=O)N(C)C4CCCCC4)cc3c2=O)CC1 | inactive | 
COc1ccc(N2CCN(S(=O)(=O)c3ccc4c(c3)CCCN4C(C)=O)CC2)cc1 | inactive | 
CCC(C)n1c(SCc2c(F)cccc2Cl)nc2ccsc2c1=O (configuration not stated) | inactive | 
COC(=O)C1=NN(c2cccc3ccccc23)C2C(=O)N(c3ccccc3OC)C(=O)C12 (configuration not stated) | inconclusive: 44.7 µM [inhibitor, single point] | 
CCOC(=O)c1ccc(NC(=O)CSc2nnc(CNC(=O)c3ccc(OC)cc3)n2CC)cc1 | inactive | 
O=C(Nc1ccc(O)c2c(=O)cc(-c3ccccc3Cl)oc12)c1cccc(Cl)c1 | inactive | 
COc1ccc(NCC(=O)Nc2ccccc2C#N)cc1Cl | inconclusive: 28.2 µM [inhibitor, single point] | 
O=C(Nc1nnc(S(=O)(=O)N2CCCC2)s1)c1ccccc1Br | inconclusive: 7.08 µM [inhibitor, partial curve] | 
CC(=O)C1=C(O)C(=O)N(CCCN2CCOCC2)C1c1ccccc1[N+](=O)[O-] (configuration not stated) | active: 25.1 µM | 
Nc1c(Cl)ncnc1NCCc1ccc(O)cc1 | inactive | 
CCOC(=O)C1=C(C)NC(C)=C(C(=O)OC)C1c1cccc(Cl)c1Cl (configuration not stated) | inactive | 
COc1ccc(-c2nc(-n3c(C)c(C(C)=O)c(C(C)=O)c3C)sc2C)cc1 | inconclusive: 35.5 µM [inhibitor, single point] | 
Cc1ccc(OCCNC(=O)/C=C/c2ccc([N+](=O)[O-])cc2)cc1C | inconclusive: 2.82 µM [inhibitor, full curve] | 
Cc1ccc2[nH]c3c(c2c1)CCNC3=O | inconclusive: 20 µM [inhibitor, partial curve] | 
OC(CN(c1ccccc1)c1ccccc1)Cn1cnc2ccccc21 (configuration not stated) | inconclusive: 12.6 µM [inhibitor, partial curve] | 
